Measured values published in paper PMC3060616.
No constants are given. Whether binding was seen depends on the method and setting. In cells and extracts the contact can be indirect. Some entries that bind do so weakly or less than the wild type.

T1: PBP1A, purified (E. coli) (UniProt P02918)
T1 sequence: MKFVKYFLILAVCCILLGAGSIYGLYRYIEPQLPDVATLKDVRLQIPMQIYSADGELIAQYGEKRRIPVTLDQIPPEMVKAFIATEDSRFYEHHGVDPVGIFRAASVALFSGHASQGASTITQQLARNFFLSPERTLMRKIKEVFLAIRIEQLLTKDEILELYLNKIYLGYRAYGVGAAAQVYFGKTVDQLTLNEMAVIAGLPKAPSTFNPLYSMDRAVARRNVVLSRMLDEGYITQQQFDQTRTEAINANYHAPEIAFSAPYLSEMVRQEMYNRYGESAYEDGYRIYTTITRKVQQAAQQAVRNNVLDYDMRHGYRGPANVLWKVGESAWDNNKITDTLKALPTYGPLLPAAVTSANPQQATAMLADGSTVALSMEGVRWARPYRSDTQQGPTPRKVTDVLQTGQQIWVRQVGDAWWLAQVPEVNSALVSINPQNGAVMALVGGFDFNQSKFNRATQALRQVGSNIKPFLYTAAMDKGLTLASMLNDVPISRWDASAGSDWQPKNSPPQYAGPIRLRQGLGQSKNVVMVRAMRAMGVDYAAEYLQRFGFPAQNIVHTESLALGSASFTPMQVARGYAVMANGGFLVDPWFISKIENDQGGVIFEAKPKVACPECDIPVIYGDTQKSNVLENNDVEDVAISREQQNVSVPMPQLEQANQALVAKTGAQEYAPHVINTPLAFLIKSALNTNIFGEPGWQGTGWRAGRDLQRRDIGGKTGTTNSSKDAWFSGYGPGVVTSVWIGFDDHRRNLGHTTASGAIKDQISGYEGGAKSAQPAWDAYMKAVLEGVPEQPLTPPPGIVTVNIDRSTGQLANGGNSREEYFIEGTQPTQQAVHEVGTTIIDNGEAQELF

T2: PBP1B, purified (E. coli) (UniProt P02919)
T2 sequence: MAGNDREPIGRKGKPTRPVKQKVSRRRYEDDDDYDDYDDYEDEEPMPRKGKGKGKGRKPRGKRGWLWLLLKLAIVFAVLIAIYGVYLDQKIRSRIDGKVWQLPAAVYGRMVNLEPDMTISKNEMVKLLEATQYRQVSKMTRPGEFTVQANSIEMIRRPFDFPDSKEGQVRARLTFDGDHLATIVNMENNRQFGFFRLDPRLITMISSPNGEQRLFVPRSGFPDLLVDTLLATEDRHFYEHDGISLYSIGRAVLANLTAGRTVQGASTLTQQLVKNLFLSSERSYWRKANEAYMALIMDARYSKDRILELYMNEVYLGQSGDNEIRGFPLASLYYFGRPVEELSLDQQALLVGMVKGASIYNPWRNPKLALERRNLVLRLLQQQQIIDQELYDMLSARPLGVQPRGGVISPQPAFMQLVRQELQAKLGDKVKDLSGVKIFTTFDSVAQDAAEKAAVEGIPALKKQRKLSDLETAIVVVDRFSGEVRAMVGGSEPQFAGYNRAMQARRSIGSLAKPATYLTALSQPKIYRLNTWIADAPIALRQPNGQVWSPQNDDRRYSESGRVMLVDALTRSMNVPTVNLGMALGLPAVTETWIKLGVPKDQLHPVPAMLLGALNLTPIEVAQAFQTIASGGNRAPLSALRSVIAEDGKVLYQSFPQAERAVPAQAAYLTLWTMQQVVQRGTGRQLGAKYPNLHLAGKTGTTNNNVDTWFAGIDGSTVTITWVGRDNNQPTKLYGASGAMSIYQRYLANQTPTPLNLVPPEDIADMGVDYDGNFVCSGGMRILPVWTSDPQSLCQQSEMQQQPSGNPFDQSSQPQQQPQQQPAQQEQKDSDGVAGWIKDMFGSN

T3: PBP1B, endogenous (E. coli (endogenous in E. coli)) (UniProt P02919)
T3 sequence: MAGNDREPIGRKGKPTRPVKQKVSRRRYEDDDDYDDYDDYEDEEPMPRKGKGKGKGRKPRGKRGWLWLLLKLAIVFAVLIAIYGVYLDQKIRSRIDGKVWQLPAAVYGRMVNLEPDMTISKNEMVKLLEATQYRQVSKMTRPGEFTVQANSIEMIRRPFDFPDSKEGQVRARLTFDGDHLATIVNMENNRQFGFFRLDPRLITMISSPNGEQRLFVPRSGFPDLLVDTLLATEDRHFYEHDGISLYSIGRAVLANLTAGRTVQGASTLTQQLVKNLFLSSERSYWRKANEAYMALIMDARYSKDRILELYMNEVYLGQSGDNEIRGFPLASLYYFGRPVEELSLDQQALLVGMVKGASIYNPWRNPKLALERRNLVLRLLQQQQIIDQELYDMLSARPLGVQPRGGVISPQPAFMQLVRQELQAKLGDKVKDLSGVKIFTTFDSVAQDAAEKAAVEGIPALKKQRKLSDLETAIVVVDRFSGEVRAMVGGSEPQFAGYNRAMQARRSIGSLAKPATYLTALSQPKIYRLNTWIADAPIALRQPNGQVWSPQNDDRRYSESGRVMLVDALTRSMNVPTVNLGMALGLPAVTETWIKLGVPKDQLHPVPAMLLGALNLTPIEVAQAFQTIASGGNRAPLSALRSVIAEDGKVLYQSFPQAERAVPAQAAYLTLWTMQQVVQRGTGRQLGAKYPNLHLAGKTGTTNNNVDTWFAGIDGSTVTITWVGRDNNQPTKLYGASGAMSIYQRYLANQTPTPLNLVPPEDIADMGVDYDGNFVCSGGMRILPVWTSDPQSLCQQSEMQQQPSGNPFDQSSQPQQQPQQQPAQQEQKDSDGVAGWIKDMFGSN

B1: LpoA (YraM), endogenous (protein, UniProt P45464 27-678)
chain: CGTHTPDQSTAYMQGTAQADSAFYLQQMQQSSDDTRINWQLLAIRALVKEGKTGQAVELFNQLPQELNDAQRREKTLLAVEIKLAQKDFAGAQNLLAKITPADLEQNQQARYWQAKIDASQGRPSIDLLRALIAQEPLLGAKEKQQNIDATWQALSSMTQEQANTLVINADENILQGWLDLQRVWFDNRNDPDMMKAGIADWQKRYPNNPGAKMLPTQLVNVKAFKPASTNKIALLLPLNGQAAVFGRTIQQGFEAAKNIGTQPVAAQVAAAPAADVAEQPQPQTVDGVASPAQASVSDLTGEQPAAQPVPVSAPATSTAAVSAPANPSAELKIYDTSSQPLSQILSQVQQDGASIVVGPLLKNNVEELLKSNTPLNVLALNQPENIENRVNICYFALSPEDEARDAARHIRDQGKQAPLVLIPRSSLGDRVANAFAQEWQKLGGGTVLQQKFGSTSELRAGVNGGSGIALTGSPITLRATTDSGMTTNNPTLQTTPTDDQFTNNGGRVDAVYIVATPGEIAFIKPMIAMRNGSQSGATLYASSRSAQGTAGPDFRLEMEGLQYSEIPMLAGGNLPLMQQALSAVNNDYSLARMYAMGVDAWSLANHFSQMRQVQGFEINGNTGSLTANPDCVINRNLSWLQYQQGQVVPVS
B2: LpoB (YcfM), endogenous (protein, UniProt P0AB38 20-213)
chain: CVGQREPAPVEEVKPAPEQPAEPQQPVPTVPSVPTIPQQPGPIEHEDQTAPPAPHIRHYDWNGAMQPMVSKMLGADGVTAGSVLLVDSVNNRTNGSLNAAEATETLRNALANNGKFTLVSAQQLSMAKQQLGLSPQDSLGTRSKAIGIARNVGAHYVLYSSASGNVNAPTLQMQLMLVQTGEIIWSGKGAVSQQ

Columns and labels:
[1] = target: T1, PBP1A, purified (E. coli); assay: pull-down; affinity chromatography: E. coli membrane fraction applied in 400 mM NaCl to sepharose columns with immobilised protein, empty sepharose as control; washed, eluted with 2 M NaCl; SDS-PAGE, Western blot and immunodetection of Lpo proteins or PBPs; only the target purified
[2] = target: T2, PBP1B, purified (E. coli); assay: as above
[3] = target: T3, PBP1B, endogenous (E. coli (endogenous in E. coli)); assay: cross-linking + co-IP; E. coli cells treated with DTSSP cross-linker in vivo; membrane fractions immunoprecipitated with LpoA or PBP1B antibodies and protein G-agarose; cross-link reverted with reducing agent; immunodetection of PBP1A or LpoB

| Binder | binding [1] | binding [2] | binding [3] |
| --- | --- | --- | --- |
| B1 | binds |  |  |
| B2 |  | binds | binds |
